The values below come from the supplement of paper PMC8007513.

Structures can show the parent of a compound that is named as a salt. ± gives the standard error. The campaign covered roughly 1,300 compounds. About 75 (6%) showed an effect of 50% or more. The list shows a part of the results.

In the experiment the test system is Trichoderma virens ATCC 9645. As to the kind of experiment: growth yield (OD600) relative to untreated control; higher = less growth inhibition. The following applies: compound concentration: 100 uM. In a few lines: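 Growth appears as means of duplicate screens, relative to the control containing neither agent. To obtain it, OD600 was read on a BioTek EL800 at 40 h and 72 h. The cultures were 100 μl aliquots in 96-well plates at 30 °C, holding Trichoderma virens ATCC 9645 spores at 15,000 spores ml^−1 in potato dextrose broth, library compounds at 100 μM final, and, in some wells, a biocide at 200 ng ml^−1.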

For `CC(C)[N+](C)(CCC(C(N)=O)(c1ccccc1)c1ccccc1)C(C)C` [Isopropamide iodide], the growth yield was determined as 103 ± 4.3% (40 h) and 97.5 ± 2.7% (72 h).
`O=C([O-])c1ccccc1-c1c2cc(Br)c(=O)cc-2oc2[c]([Hg+])c([O-])c(Br)cc12.[Na+].[Na+].[OH-]` [Merbromin] displayed a growth yield (40 h) of 2.54 ± 0.95% and a growth yield (72 h) of 2.2 ± 0.94%.
The corresponding values for `O=c1[nH]c2ccccc2n1CCCN1CCC(n2c(=O)[nH]c3cc(Cl)ccc32)CC1` [Domperidone] are 107 ± 1.8% and 108.9 ± 0.63%.
On the same counts, the results for `S=C(NC1CCCCC1)N1CCC(c2cnc[nH]2)CC1` [Thioperamide maleate] are 95.9% and 95.02 ± 0.84%.
On to `C[C@]12CCC(=O)C=C1CC[C@@H]1[C@@H]2C(=O)C[C@]2(C)C(=O)CC[C@@H]12` [Adrenosterone], for which the growth yield (40 h) is 98.32 ± 0.48% and the growth yield (72 h) turned out to be 95.4 ± 1.5%.
For the compound `CC[C@H](C)[C@H]1O[C@]2(C=C[C@@H]1C)C[C@@H]1C[C@@H](C/C=C(\C)[C@@H](O[C@H]3C[C@H](OC)[C@@H](O[C@H]4C[C@H](OC)[C@@H](O)[C@H](C)O4)[C@H](C)O3)[C@@H](C)/C=C/C=C3\CO[C@@H]4[C@H](O)C(C)=C[C@@H](C(=O)O1)[C@]34O)O2.CO[C@H]1C[C@H](O[C@H]2[C@H](C)O[C@@H](O[C@@H]3/C(C)=C/C[C@@H]4C[C@@H](C[C@]5(C=C[C@H](C)[C@@H](C(C)C)O5)O4)OC(=O)[C@@H]4C=C(C)[C@@H](O)[C@H]5OC/C(=C\C=C\[C@@H]3C)[C@]54O)C[C@@H]2OC)O[C@@H](C)[C@@H]1O` [Avermectin B1], the growth yield is 107 ± 5.6% (40 h) and 105 ± 2.3% (72 h).
The corresponding values for `C[N+]1(C)CCOC(O)(c2ccc(-c3ccc(C4(O)C[N+](C)(C)CCO4)cc3)cc2)C1` (configuration not stated) [Hemicholinium bromide] are 98.32 ± 0.48% and 101 ± 0.1%.
`CC[C@@H](C(N)=O)N1CCCC1=O` [Levetiracetam] returned a growth yield (40 h) of 101 ± 4.1% and a growth yield (72 h) of 100 ± 3.1%.
In the case of `COc1ccc(C(=O)N2CCCC2=O)cc1` [Aniracetam], the growth yield is, setting by setting: (40 h) 105 ± 5.4%; (72 h) 103 ± 5%.
For the compound `CCN[C@@H](C)Cc1cccc(C(F)(F)F)c1` [Dexfenfluramine hydrochloride], the growth yield reads like this: (40 h) 102 ± 3.6%; (72 h) 102 ± 4.3%.
Turning to `CC[C@@]1(O)C(=O)OCc2c1cc1n(c2=O)Cc2cc3ccccc3nc2-1` [Camptothecine (S,+)], the growth yield is, setting by setting: (40 h) 99.1 ± 3.8%; (72 h) 98.6 ± 2.9%.
On the same counts, the results for `CCC(=O)O[C@@](Cc1ccccc1)(c1ccccc1)[C@@H](C)CN(C)C` [Levopropoxyphene napsylate] are 106 ± 2.9% and 103 ± 3.4%.
For `C[N+]1(C)[C@@H]2CC[C@H]1C[C@@H](OC(=O)C(CO)c1ccccc1)C2` (some centres not stated) [Methylatropine nitrate], the growth yield is, setting by setting: (40 h) 102 ± 3.2%; (72 h) 97.4 ± 2%.
In the case of `CN1C[C@H](C(=O)N[C@]2(C)O[C@@]3(O)[C@@H]4CCCN4C(=O)[C@H](Cc4ccccc4)N3C2=O)C[C@@H]2c3cccc4[nH]cc(c34)C[C@H]21` [Dihydroergotamine tartrate], the growth yield is, setting by setting: (40 h) 111%; (72 h) 108%.
On the same counts, the results for `C[N+](C)(C)CCCCCCCCCC[N+](C)(C)C` [Decamethonium bromide] are 111 ± 7.9% and 102 ± 6.5%.
Consider `CC(=O)OC1CN2CCC1CC2` (configuration not stated) [Aceclidine Hydrochloride], for which the growth yield came out at 97.2 ± 2.9% (40 h) and 101 ± 3.5% (72 h).
For the compound `CC(CCc1ccccc1)NC(C)C(O)c1ccc(O)cc1` (configuration not stated) [Nylidrin], the growth yield is, setting by setting: (40 h) 100 ± 2.1%; (72 h) 99.2 ± 2.9%.
With `COc1cccc(C2(O)CCCCC2CN(C)C)c1` (configuration not stated) [Tramadol hydrochloride], the growth yield (40 h) worked out at 101 ± 1.3% and the growth yield (72 h) stood at 99.8 ± 2.1%.
With `CCCN1C[C@H](CSC)C[C@@H]2c3cccc4[nH]cc(c34)C[C@H]21` [Pergolide mesylate], the growth yield came to 94.5 ± 1.8% (40 h) and 98.5 ± 1.4% (72 h).
As to `COc1ccc(CCN)cc1OC` [Homoveratrylamine], the growth yield amounted to 102.8 ± 0.16% (40 h) and 101 ± 1.9% (72 h).
For the compound `CC(=O)O[C@H]1C[C@H](O[C@H]2[C@@H](O)C[C@H](O[C@H]3[C@@H](O)C[C@H](O[C@H]4CC[C@@]5(C)[C@H](CC[C@@H]6[C@@H]5C[C@@H](O)[C@]5(C)[C@@H](C7=CC(=O)OC7)CC[C@]65O)C4)O[C@@H]3C)O[C@@H]2C)O[C@H](C)[C@H]1O[C@@H]1O[C@H](CO)[C@@H](O)[C@H](O)[C@H]1O` [Lanatoside C], the growth yield was determined as 101 ± 5.2% (40 h) and 98.2 ± 3.6% (72 h).
The corresponding values for `COc1ccc(CCN2CCC(Nc3nc4ccccc4n3Cc3ccc(F)cc3)CC2)cc1` [Astemizole] are 79.1 ± 2.9% and 96.5 ± 6.5%.
With `Oc1cc(Cl)ccc1Oc1ccc(Cl)cc1Cl` [Triclosan], the growth yield (40 h) was determined as 6.99 ± 4.1% and the growth yield (72 h) was 3.25 ± 0.1%.
On the same counts, the results for `CCN(CC)C(C)C(=O)c1ccccc1` (configuration not stated) [Amfepramone hydrochloride] are 102 ± 3% and 99 ± 3.1%.
On the same counts, the results for `C[N+]1([O-])[C@@H]2C[C@@H](OC(=O)[C@H](CO)c3ccccc3)C[C@H]1[C@@H]1O[C@@H]12` (some centres not stated) [Scopolamin-N-oxide hydrobromide] are 100 ± 1.6% and 96 ± 1.1%.
On to `CCC1(CC)C(=O)C=CNC1=O` [Pyrithyldione], for which the growth yield reads like this: (40 h) 98.3 ± 1.8%; (72 h) 97.3 ± 1.7%.
The corresponding values for `COc1ccc(Cc2nccc3cc(OC)c(OC)cc23)cc1OC` [Papaverine hydrochloride] are 102.9 ± 0.95% and 103 ± 0.63%.
On the same counts, the results for `Fc1ccc(C(OCCN2CCN(CCCc3ccccc3)CC2)c2ccc(F)cc2)cc1` are 61.79 ± 0.16% and 92 ± 0.94%.
Take `CC(C)(C)NCC(O)c1cc(Cl)c(N)c(Cl)c1` (configuration not stated) [Clenbuterol hydrochloride]: the growth yield came to 106.1 ± 0.32% (40 h) and 111% (72 h).
With `CC[C@@]1([C@@H]2O[C@@H]([C@H]3O[C@@](O)(CO)[C@H](C)C[C@@H]3C)C[C@@H]2C)CC[C@H]([C@]2(C)CC[C@]3(C[C@H](O)[C@@H](C)[C@@H]([C@@H](C)[C@@H](OC)[C@H](C)C(=O)O)O3)O2)O1` [Monensin sodium salt], the growth yield reads like this: (40 h) 105.5 ± 0.32%; (72 h) 105 ± 7.5%.
Regarding `CCN(C)C(=O)Oc1cccc([C@H](C)N(C)C)c1` [Rivastigmine], the growth yield by setting is: (40 h) 103 ± 1.3%; (72 h) 95.2 ± 5.2%.
For the compound `CCC1(c2ccc(N)cc2)CCC(=O)NC1=O` (configuration not stated) [Glutethimide, para-amino], the growth yield turned out to be 102 ± 2.5% (40 h) and 106 ± 1.3% (72 h).
As for `C[C@]12CC[C@H](O)C[C@@H]1CC[C@@H]1[C@@H]2CC[C@]2(C)C(=O)CC[C@@H]12` [Epiandrosterone], the growth yield is, setting by setting: (40 h) 91.8%; (72 h) 98%.
`CCn1cc(C(=O)O)c(=O)c2cc3c(cc21)OCO3` [Oxolinic acid]: the growth yield stood at 95.46 ± 0.16% (40 h) and 97.43 ± 0.1% (72 h).
On the same counts, the results for `CN(C)C(=O)Oc1cc(OC(=O)N(C)C)cc(C(O)CNC(C)(C)C)c1` (configuration not stated) [Bambuterol hydrochloride] are 98.64 ± 0.79% and 103 ± 1.1%.
The corresponding values for `NCC(O)c1ccc(O)cc1` (racemic) [(+,-)-Octopamine hydrochloride] are 106 ± 1.4% and 99.7 ± 2.8%.
